Experimental data from the supplement of paper PMC10126150.
Values marked as one replicate rest on one cluster of the flow cell; about a third of the high ones do not repeat.

Each sequence was assayed on ATP (assay: switch fluorescence ratio, 500 uM ATP over buffer (Cy3 cluster intensity, sum of 5 cycles each) (fold (ratio)); higher = stronger signal-on switching upon ATP binding; sequences stand for … in TCGTCGGCAGCGTCAGATGTGTATAAGAGACAGTTTTTTTTTTTTTTTTTTTTTTTTT…TC). Conditions: aptamer strand: ATP DNA aptamer (quencher-CACCTGGGGGAGTATTGCGGAGGAAGG + anchor), 100 nM annealed; ATP concentration: 500 uM; one replicate.
Method in brief: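 Switching-strand clusters labelled with Cy3 on a modified Illumina MiSeq flow-cell were annealed to 100 nM quencher-labelled ATP aptamer, imaged in selection buffer, and re-imaged after 15 min with 500 uM ATP at 22 °C. This was done over five cycles with NaOH stripping and re-annealing in between. The fluorescence ratio is summed target-cycle over summed buffer-cycle Cy3 intensity per cluster, averaged per switch-domain sequence, excluding clusters outside 100-1000 RFU.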
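Note: ATP exposure 15 min at 22 °C before imaging.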

Sequence | switch fluorescence ratio
TATGCGCGGC | 0.948
TATGCTGAGC | 0.988
TATGCTTTCT | 1.01
TATGCTTTTA | 0.976
TATGGAACGT | 1.05
TATGGATTAA | 1.01
TATGGCCGGT | 1.03
TATGGCTCGA | 1.01
TATGGGCTAG | 0.997
TATGGGGCGG | 1.07
TATGGGTCTG | 1.05
TATGGTCGCG | 0.985
TATGTAGGTG | 1.12
TATGTAGTCT | 1.07
TATGTATCT | 1.01
TATGTCAACG | 1.01
TATGTCTCAG | 0.992
TATGTCTTAG | 0.989
TATGTGATC | 1
TATGTGGCGA | 1.01
TATGTTCATT | 1.01
TATGTTCTGC | 0.991
TATGTTGACT | 1.04
TATGTTGTAG | 0.993
TATGTTTTAA | 0.985
TATTAACCAT | 1.02

Sequence | switch fluorescence ratio
TATTAAGAGT | 1.05
TATTAATCCA | 0.971
TATTACATTC | 1.02
TATTACCTTT | 0.958
TATTACGACG | 1.12
TATTACTCAT | 1.04
TATTACTGGT | 0.999
TATTAGACCA | 1.06
TATTAGACCG | 0.996
TATTATACG | 1.04
TATTATCGCG | 1.01
TATTATCTCC | 1.02
TATTATTTCT | 1
TATTCCATTA | 0.997
TATTCGGCTA | 0.996
TATTCGTGAA | 1.03
TATTCTAATA | 1
TATTCTAGGC | 1.04
TATTCTCCCA | 1.02
TATTCTGAAT | 0.949
TATTCTTCGG | 0.995
TATTCTTTTG | 0.978
TATTGACTTG | 1.05
TATTGCATAG | 0.956
TATTGGGTAC | 1.02
TATTGTAGTA | 0.999

Sequence | switch fluorescence ratio
TATTGTCATA | 0.977
TATTGTTCAT | 1.01
TATTTAACAT | 0.994
TATTTAGCAG | 1.07
TATTTAGTGC | 1.07
TATTTATAGG | 0.969
TATTTCACAT | 0.973
TATTTCAGGC | 1.01
TATTTCCAGG | 1.23
TATTTCCGAC | 1.51
TATTTCTAG | 1.01
TATTTCTATA | 1
TATTTCTGG | 0.937
TATTTGCT | 0.955
TATTTTGACA | 0.951
TATTTTGATG | 0.997
TATTTTGTTC | 1.05
TATTTTTGAG | 0.965
TATTTTTTGC | 0.978
TCAAAAATTG | 0.994
TCAAAATACC | 1.01
TCAAAGCAGG | 1.08
TCAAAGCATT | 1.04
TCAAAGGCGT | 1.02
TCAAAGTTAG | 1.11
TCAAATAGAT | 0.999

Sequence | switch fluorescence ratio
TCAAATGGAG | 1.03
TCAAATGGGT | 0.991
TCAAATTAT | 0.932
TCAACCATGC | 1.11
TCAACCCCC | 1.18
TCAACGGCAC | 1.59
TCAACGTTGA | 0.975
TCAACTATGA | 1.02
TCAAGATCAA | 1.01
TCAAGCACAG | 1.13
TCAAGCTATT | 0.953
TCAAGCTTAT | 1.01
TCAAGGGGG | 0.968
TCAAGGTGCT | 1.02
TCAATACTCT | 2.79
TCAATAGTGT | 1.01
TCAATCTTCG | 1.12
TCAATGCTAT | 1.05
TCAATGGATC | 0.999
TCAATGGCGC | 1.04
TCAATGTCTT | 0.955
TCAATTCACA | 1.01
TCAATTGCTA | 0.995
TCAATTGTCT | 1.02
TCAATTTTAC | 2.02
TCACAAGGAC | 1.06

Sequence | switch fluorescence ratio
TCACACAGCA | 1.07
TCACACTCAG | 1.07
TCACAGGACT | 1.08
TCACAGTCTT | 1.04
TCACATCACT | 1.32
TCACATCCCG | 1.05
TCACATTTGC | 0.974
TCACCACAGG | 1.14
TCACCGTAGT | 1.13
TCACCTCCA | 1.06
TCACGAGGGC | 1.03
TCACGGCCCT | 1.07
TCACGTAAAG | 1.21
TCACGTGCTA | 1.03
TCACGTGTGA | 0.954
TCACGTTGAA | 1.01
TCACTAATTA | 1.02
TCACTAGTA | 0.992
TCACTGACCA | 1.2
TCACTGGCTA | 1.01
TCACTTATTA | 1
TCAGAAGGGA | 1.02
TCAGAATTAG | 1.02
TCAGACGATG | 0.992
TCAGACTTGG | 1.05
TCAGAGCGGG | 0.999

Sequence | switch fluorescence ratio
TCAGAGGAGA | 1.06
TCAGAGGATG | 0.996
TCAGAGGCCA | 1.02
TCAGAGTCGT | 1.02
TCAGCATTAA | 1.6
TCAGCCATCC | 1.31
TCAGGA | 1.05
TCAGGAACGT | 1.08
TCAGGAGGTT | 1
TCAGGATAT | 1.14
TCAGGATTAA | 1.01
TCAGGCGATG | 0.995
TCAGGCGGT | 0.934
TCAGGGAGGA | 0.978
TCAGGGTTCG | 0.955
TCAGGTATGC | 1
TCAGGTCGAA | 1.04
TCAGGTCGCC | 0.969
TCAGGTTGAG | 1.01
TCAGTAGAAG | 1.02
TCAGTCATAG | 1.05
TCAGTTAATG | 1.06
TCAGTTCGCT | 1.04
TCAGTTCTGG | 1.01
TCATAAAGCT | 1.06
TCATAATGAG | 0.993

Sequence | switch fluorescence ratio
TCATAATTAT | 1.01
TCATACTCAG | 1.03
TCATACTGTT | 0.979
TCATATACTA | 1
TCATATCCTT | 0.998
TCATATTCT | 1.03
TCATATTTTA | 1.02
TCATCAATGT | 0.978
TCATCACTTG | 1.03
TCATCCATAC | 3.41
TCATCCTGTG | 1.01
TCATCGATGG | 1.01
TCATCGGCGC | 1.23
TCATCTGGAG | 1.03
TCATCTGTAT | 1.04
TCATCTGTTA | 1.06
TCATGAAATG | 0.961
TCATGAAGGT | 0.982
TCATGACTA | 0.964
TCATGACTGT | 0.995
TCATGAGGCA | 1.03
TCATGAGTCC | 1.06
TCATGGAGGG | 0.975
TCATGGGTCT | 1.04
TCATGTATA | 0.998
TCATGTGCTT | 0.979

Sequence | switch fluorescence ratio
TCATTAGGAC | 0.978
TCATTAGGGA | 0.99
TCATTATAAG | 1.01
TCATTATCTT | 1.01
TCATTATTTT | 1.13
TCATTCACTT | 1.05
TCATTCATGT | 0.995
TCATTCGACG | 1.02
TCATTCGAGT | 1.02
TCATTCGTTG | 1.01
TCATTCTGGA | 0.989
TCATTTACTC | 1.05
TCATTTGACA | 0.974
TCCAACAATA | 1.31
TCCAACATAA | 1.02
TCCAACGGAG | 0.976
TCCAACTCTT | 0.956
TCCAAGAGTG | 1.07
TCCAAGTGGT | 1.01
